# Assay results from article PMC12136788.
# Some of the results follow.
# B1: chr14:58718896:58718897:+_ENSG00000100567_ENST00000216455|hu_mus|FALSE|FALSE (ssRNA)
# RNA: GGGAGUUCUACAGUCCGACGAUCUCGAUCAACAUUAAAAAGACGUUUAUUGGAGCCUUCUUCAUAAAGUUUAGAAAGGACUAGUUUUUCUACCCCAAACACAACACCAUCUUUACAUCUGAUCCCAAUAGCUGUACUACUGUUCAACAGAGGAUUGAGCAUCA
# B2: chr7:54823571:54823572:-_ENSG00000132432_ENST00000352861|hu_mus|hu_hu_hu_mus_False|1_1 (ssRNA)
# RNA: GGGAGUUCUACAGUCCGACGAUCUCCCAUGAUAGCAAAUCCUAUAGCUGUAGCCAUGGCAAUCUUCUGGAAUUCUUUUCUGUCGGGUUUGGUGCAUCUUUUAACCAGCCGAAUUGAGUCCUUUACAAACUGCCGGCUUGGCUCCAACAGAGGAUUGAGCAUCA
# B3: chr5:159492046:159492047:+_ENSG00000113312_ENST00000231238|hu_mus|FALSE|FALSE (ssRNA)
# RNA: GGGAGUUCUACAGUCCGACGAUCCCCAGUCAGCCUUUAAGACUGUUAUUUCUGUUAUCUAUUAUUAUUCGGAUUUUGAACAAAAUUGAUGGAGUAGGAGCCAGUAGAAGAAUCCUGCUUGAUCUGGAAAUUUUCUGUGGAGAGCAACAGAGGAUUGAGCAUCA
# B4: chr7:54825262:54825263:-_ENSG00000132432_ENST00000352861|hu_hu|hu_hu_hu_mus_False|8_48 (ssRNA)
# RNA: GGGAGUUCUACAGUCCGACGAUCCUGCCGGCUGGGCUCCACAAACUGCAUUACCUGAUCCAUGUUUGUUGGAUGGCGGAUUGAGAGUGCCAGGGACCGUAGCUCAGGAGAGAACCGAGCCCAACGGCACCGGAACCUGGCAACCAACAGAGGAUUGAGCAUCA
# B5: chr4:39739082:39739083:+_ENSG00000078140_ENST00000261427|perfect_dup|motif|central (ssRNA)
# RNA: GGGAGUUCUACAGUCCGACGAUCUAUUUUUAUCUCUAGUUGAUAUCUUCCACCUUCAUACGGUGUGUCUGGAGGUCCUGCGGUUUCUCCUCUUAAUUCUGUAAAAUUCUCAUCUACAAGAUCUACUUUAAUUUGAUUUUUGCUCAACAGAGGAUUGAGCAUCA
# B6: 98571650_98572089_1718_CDS_ENSMUSG00000017210_ENSMUST00000017354|mouse|control|control (ssRNA)
# RNA: GGGAGUUCUACAGUCCGACGAUCAGGGCGGAAGCAGGGAUGGUCAGGGUUCAAAAUCUUGCCCUCCUCGGGCAUGCAGGUCUGCAUCCAAGUCUCAAAGAAGGGGACUUCUUCUCCUGAGCUCGACUCCGAGAGGAUCACCUCCAACAGAGGAUUGAGCAUCA
# B7: chr9:101992667:101992668:+_ENSG00000106803_ENST00000223641|hu_mus|FALSE|FALSE (ssRNA)
# RNA: GGGAGUUCUACAGUCCGACGAUCAGAUGGAUGUAGCCCAAUCUAUGAUCGCGUGUACUUGCCCCAAAUGUGCAGCAUAAAUACAGCAGCGAUGAACAGAAGACUCAUCACCAGCACUGGGACAGGGCCCACUUUGAGCCCUGGCAACAGAGGAUUGAGCAUCA
# B8: 53113633_53113753_266_3pUTR_ENSMUSG00000020361_ENSMUST00000020630|mouse|control|control (ssRNA)
# RNA: GGGAGUUCUACAGUCCGACGAUCCUCUGAAAGCCCAGGUCUAUGCCCACCACCGACAUGGCGCCGGCUACUGCUCCGGCUCGGGCCCAGGGCCGGCCGCCGACACUGCACACGGAACCCGGCGGGGUUGGCGCGUGGAAGAGGCAACAGAGGAUUGAGCAUCA
# B9: chr1:225611761:225611762:-_ENSG00000143815_ENST00000272163|hu_mus|hu_hu_hu_mus_True|28_28 (ssRNA)
# RNA: GGGAGUUCUACAGUCCGACGAUCCCAGGCCAUCGGCCUCUGACCACUUCACCCUCAACAAACUUCCUACUUGGCAUUUUCUAAAAUUAGUCUGGCCGCGCUCCGGCCGGUGACACGGCCACUCCAGGACAGUCACCAGCAGCCCAACAGAGGAUUGAGCAUCA
# B10: chr7:112906983:112906984:-_ENSMUSG00000036862_ENSMUST00000078482|mus_hu|motif|central (ssRNA)
# RNA: GGGAGUUCUACAGUCCGACGAUCGGGGGAGACAAUAGGAGUCCCUGGGGGCGCAUUCUCACGAAUCGUAGCCUCACUGCGGGCCCGGGGAAAGCGGGGUCCACGCUCAGCUUCCCCCUGCAGUCCAACAAUGAUCACACCAGUCAACAGAGGAUUGAGCAUCA
# B11: chr2:17897474:17897475:-_ENSG00000163029_ENST00000351948|hu_mus|motif|central (ssRNA)
# RNA: GGGAGUUCUACAGUCCGACGAUCUAUUGCUUCCAGAAGAGCUGGAACAUGAGGACCAAAUCUUUUUAGUCGAUCAGUUUUACGGUCUUUCAGUUCUUUCAAUUGUCUCUGAUUAUAGUUGAGUGCAUGUCUCACUUCUAUAUCCAACAGAGGAUUGAGCAUCA
# B12: chr4:25749455:25749456:-_ENSG00000091490_ENST00000264868|hu_hu|hu_hu_hu_mus_False|98_98 (ssRNA)
# RNA: GGGAGUUCUACAGUCCGACGAUCGCACUAUGACCUCCCCUAGAAAACACAGGGGGAAAAAAUGUAAACCAAUGUACAAUGUUAUCGCCUUCCCUGUGUGUGGAGUGUUUGUCUCAAGGCUCCUUCUAGCUGCUGGAUUUGGGACAACAGAGGAUUGAGCAUCA
# B13: chr3:179052105:179052106:+_ENSG00000121864_ENST00000484866|hu_hu|motif|central (ssRNA)
# RNA: GGGAGUUCUACAGUCCGACGAUCUCCAAACCUCAUCAAGCAGUCACUACAUUUAUGAGGCAAGUCAGCUGAAUGCUUGAAAUCGGGAUGAAUUUUAAGAUCUUCAAUUUGUCCUGUUGAAUAUUCACAAUAUUGACAUAAAUACAACAGAGGAUUGAGCAUCA
# B14: 114262867_114262987_1014_CDS_ENSG00000145362_ENST00000514960|human|control|control (ssRNA)
# RNA: GGGAGUUCUACAGUCCGACGAUCCACCUCAACCUGGCUUCAAUGGGGUCAUGUGAUUUGGCAAACACUACAAAUUUGGCCAUAUAAGGUACGCAGAUAAUUUCUCUGUAUACUUGUGAUGCAAAAGUAACGGAUUCCUGGAUCCAACAGAGGAUUGAGCAUCA
# B15: 150229297_150239220_176_5pUTR_ENSMUSG00000028967_ENSMUST00000030811|mouse|control|control (ssRNA)
# RNA: GGGAGUUCUACAGUCCGACGAUCCCCAGGUGUUUUUAAGUCAACCAGUAGCUUUCAUUCCCCCAAGGGAGCGGGACCCCGCGGCGCCCUCCCGCGCAUGUCCGUCCCGGCUGGCUCAGCGCCGCGGGCUUAGGGGCCCGAGCACAACAGAGGAUUGAGCAUCA
# B16: chr17:60770872:60770873:+_ENSG00000011028_ENST00000303375|hu_hu|hu_hu_hu_mus_True|98_108 (ssRNA)
# RNA: GGGAGUUCUACAGUCCGACGAUCUCUCUUUUCUUUUUUCCUUUUUUACAAACAAUAAUAGCACAUUUCGAGAAUCAAGAACUACAAUAGAGGGUCCGCUUUGAGUUUUUGUUCACAUCGUCCUGCACUGGGACACGGGGACUGCAACAGAGGAUUGAGCAUCA
# B17: chr17:64801638:64801639:+_ENSG00000154229_ENST00000413366|hu_mus|hu_hu_hu_mus_False|8_78 (ssRNA)
# RNA: GGGAGUUCUACAGUCCGACGAUCUAUAUAUAUAUAUACAUAUGUACACAUAUAUAGUAAGAGCCUAGUUAAACGUGUAAAGUAGCCAUUCAUUUUUAAAAUUACAUCUACAUUAAAAAAUUAAUAUAUCUGAUACAGUGCCAGCAACAGAGGAUUGAGCAUCA
# B18: 111714083_111714203_6032_ncRNA_ENSMUSG00000033209_ENSMUST00000156290|mouse|control|control (ssRNA)
# RNA: GGGAGUUCUACAGUCCGACGAUCUCAUGGAGGAGGCGAUUGAGCUGAGACUGUACACAGAAAUGGCGUCGGAGGCAAUGCUGUCUGCGCCCGUGGGCGAGAAAGGAGGGUGCUGGUAGCCCAAGGGCAGAGCGUUGGACACAGCAACAGAGGAUUGAGCAUCA
# B19: 6085032_6085152_820_3pUTR_ENSMUSG00000034345_ENSMUST00000039487|mouse|control|control (ssRNA)
# RNA: GGGAGUUCUACAGUCCGACGAUCAUACCCAGGGUAAAAGGAUAAUUUAACCAAACUCCAUUAUUUUUCUGGUGUAUUUAAUUGGUUCUAAGAAGGUAGGAAAAACAUUUAUGAUUUCAUUUUCUUAUAUUUCCGUAUUUGUGUCAACAGAGGAUUGAGCAUCA
# B20: chr3:9412954:9412955:+_ENSG00000134077_ENST00000452837|hu_mus|hu_hu_hu_mus_False|38_38 (ssRNA)
# RNA: GGGAGUUCUACAGUCCGACGAUCGGUUGAUAUCUCUUCUUUGAUGGCUGGAUUUUCAUAAUAGUCCAAGAUAUGUGAAUCUGAAGUGCUGCUGGCAAACUCUUUUUUACCAUCUUUCUCAUCUGCUUUGUCUCCUUGUCCACACAACAGAGGAUUGAGCAUCA
# B21: chr1:171751117:171751118:+_ENSG00000010165_ENST00000361735|hu_mus|FALSE|FALSE (ssRNA)
# RNA: GGGAGUUCUACAGUCCGACGAUCCUUGGAGCUUUUAGGUAGGAGAUUCAUGUUCCCACCGUGAGCGGCGUCUUCGACACUGCUCCUGGUGACAGAUCACCCCGGGAAGCACCGGGAGGCAGCAGCGGCGGGAAUCUUAGCCACCAACAGAGGAUUGAGCAUCA
# B22: chr1:151374018:151374019:+_ENSG00000159377_ENST00000290541|hu_hu|FALSE|FALSE (ssRNA)
# RNA: GGGAGUUCUACAGUCCGACGAUCAAAGCCACUGAUCAUGUGGGCAAUAUCCCAGUUGGUCUCUGUAGACAAUGGUCCCUCUAUUUCAACACCUUUUUCGGUGACAGUGGCGAUUUGAAACCGGUUGUAAGAACGGGCAUCUCGCAACAGAGGAUUGAGCAUCA
# Target: T1, UNK ZnF1-3 (human, UniProt Q9C0B0 31-174)
# T1 sequence: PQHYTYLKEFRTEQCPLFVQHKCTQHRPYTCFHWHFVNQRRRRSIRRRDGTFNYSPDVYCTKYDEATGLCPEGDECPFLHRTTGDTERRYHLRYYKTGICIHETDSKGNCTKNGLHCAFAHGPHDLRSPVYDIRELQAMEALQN
# Assay: nsRBNS (natural sequence RNA bind-n-seq); RBNS binding buffer (assumed for nsRBNS): 25 mM Tris pH 7.5, 150 mM KCl, 3 mM MgCl2, 0.01% Triton X-100, 500 ug/ml BSA, 20 U/ml SUPERase-In, 4 C; UNK is unkempt and MSI1 is Musashi-1; names of the RNAs are library labels; protein concentration not given here; high values mean tight binding
row,Binder,binding signal [enrichment R]
1,B1,0.942
2,B2,0.771
3,B3,1.38
4,B4,1.28
5,B5,0.313
6,B6,1.14
7,B7,1.43
8,B8,0.801
9,B9,1.09
10,B10,0.563
11,B11,0.599
12,B12,1.23
13,B13,1.12
14,B14,1.12
15,B15,0.794
16,B16,0.86
17,B17,1.84
18,B18,2.21
19,B19,1.05
20,B20,0.342
21,B21,1.02
22,B22,0.94
